# Measured values: the supplement of paper PMC4604168 (melanoma cell lines)
# Some of the results follow. Repeats are few or missing, and single values can be far off.
# Tested on: 501Mel
# Experiment: cell count relative to DMSO control; melanoma cells; higher = more viable cells
# Conditions: library dose: low library concentration; 72 h
# 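Also: cell number obtained by counting DAPI-stained nuclei in high-throughput microscope images with image analysis software, screen run in 1,536-well plates.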
row,Compound,cell count [%]
1,"O=C(/C=C/c1cccnc1)NCCCCC1CCN(C(=O)c2ccccc2)CC1 + CN(C)S(=O)(=O)c1ccc2c(c1)/C(=C/c1cc3c([nH]1)CCCC3)C(=O)N2 [SU6656] (first compound 0.01 µM, partner dose 0.4 µM)",82.9
2,"CC1(C)CCC(c2ccc(Cl)cc2)=C(CN2CCN(c3ccc(C(=O)NS(=O)(=O)c4ccc(N[C@H](CCN5CCOCC5)CSc5ccccc5)c(S(=O)(=O)C(F)(F)F)c4)cc3)CC2)C1 + COc1ccc(C2=N[C@@H](c3ccc(Cl)cc3)[C@@H](c3ccc(Cl)cc3)N2C(=O)N2CCNC(=O)C2)c(OC(C)C)c1 [Nutlin-3] (first compound 0.4 µM, partner dose 0.1 µM)",150
3,"CC1(C)CCC(c2ccc(Cl)cc2)=C(CN2CCN(c3ccc(C(=O)NS(=O)(=O)c4ccc(N[C@H](CCN5CCOCC5)CSc5ccccc5)c(S(=O)(=O)C(F)(F)F)c4)cc3)CC2)C1 + CCCS(=O)(=O)Nc1ccc(F)c(C(=O)c2c[nH]c3ncc(Cl)cc23)c1F [PLX4720] (first compound 0.4 µM, partner dose 0.08 µM)",152
4,"O=C(/C=C/c1cccnc1)NCCCCC1CCN(C(=O)c2ccccc2)CC1 + Clc1ccc(Nc2nnc(Cc3ccncc3)c3ccccc23)cc1 [vatalanib] (first compound 0.01 µM, partner dose 2 µM)",81.2
5,"CC1(C)CCC(c2ccc(Cl)cc2)=C(CN2CCN(c3ccc(C(=O)NS(=O)(=O)c4ccc(N[C@H](CCN5CCOCC5)CSc5ccccc5)c(S(=O)(=O)C(F)(F)F)c4)cc3)CC2)C1 + CO[C@H]1C[C@@H]2CC[C@@H](C)[C@@](O)(O2)C(=O)C(=O)N2CCCC[C@H]2C(=O)O[C@H]([C@H](C)C[C@@H]2CC[C@@H](OCCO)[C@H](OC)C2)CC(=O)[C@H](C)/C=C(\C)[C@@H](O)[C@@H](OC)C(=O)[C@H](C)C[C@H](C)/C=C/C=C/C=C/1C [everolimus] (first compound 0.4 µM, partner dose 0.02 µM)",9.9
6,"Cc1ccc(Nc2nccc(N(C)c3ccc4c(C)n(C)nc4c3)n2)cc1S(N)(=O)=O [Pazopanib] + C=CCNC1=C2C[C@@H](C)C[C@H](OC)[C@H](O)[C@@H](C)/C=C(\C)[C@H](OC(N)=O)[C@@H](OC)/C=C\C=C(/C)C(=O)NC(=CC1=O)C2=O [Tanespimycin] (first compound 0.4 µM, partner dose 0.002 µM)",101
7,"CC1(C)CCC(c2ccc(Cl)cc2)=C(CN2CCN(c3ccc(C(=O)NS(=O)(=O)c4ccc(N[C@H](CCN5CCOCC5)CSc5ccccc5)c(S(=O)(=O)C(F)(F)F)c4)cc3)CC2)C1 + Cc1cc(Nc2cc(N3CCN(C)CC3)nc(/C=C/c3ccccc3)n2)n[nH]1 [ENMD2076] (first compound 0.4 µM, partner dose 0.04 µM)",68.9
8,"O=C(/C=C/c1cccnc1)NCCCCC1CCN(C(=O)c2ccccc2)CC1 + COc1cc(Nc2ncc(F)c(Nc3ccc4c(n3)NC(=O)C(C)(C)O4)n2)cc(OC)c1OC [Tamatinib] (first compound 0.01 µM, partner dose 0.4 µM)",78.2
9,"Cc1ccc(Nc2nccc(N(C)c3ccc4c(C)n(C)nc4c3)n2)cc1S(N)(=O)=O [Pazopanib] + OCc1c[nH]c2ccccc12 [Indole-3-carbinol] (first compound 0.4 µM, partner dose 0.8 µM)",46.9
10,"CC1(C)CCC(c2ccc(Cl)cc2)=C(CN2CCN(c3ccc(C(=O)NS(=O)(=O)c4ccc(N[C@H](CCN5CCOCC5)CSc5ccccc5)c(S(=O)(=O)C(F)(F)F)c4)cc3)CC2)C1 + CS(=O)(=O)c1ccc(C(=O)Nc2ccc(Cl)c(-c3ccccn3)c2)c(Cl)c1 [vismodegib] (first compound 0.4 µM, partner dose 1 µM)",87
11,"CC1(C)CCC(c2ccc(Cl)cc2)=C(CN2CCN(c3ccc(C(=O)NS(=O)(=O)c4ccc(N[C@H](CCN5CCOCC5)CSc5ccccc5)c(S(=O)(=O)C(F)(F)F)c4)cc3)CC2)C1 + Cn1c(=O)n(-c2ccc(C(C)(C)C#N)cc2)c2c3cc(-c4cnc5ccccc5c4)ccc3ncc21 [NVP-BEZ235] (first compound 0.4 µM, partner dose 0.004 µM)",69.9
12,"CC1(C)CCC(c2ccc(Cl)cc2)=C(CN2CCN(c3ccc(C(=O)NS(=O)(=O)c4ccc(N[C@H](CCN5CCOCC5)CSc5ccccc5)c(S(=O)(=O)C(F)(F)F)c4)cc3)CC2)C1 + C=CCn1c(=O)c2cnc(Nc3ccc(N4CCN(C)CC4)cc3)nc2n1-c1cccc(C(C)(C)O)n1 [MK1775] (first compound 0.4 µM, partner dose 0.02 µM)",62.5
13,"O=C(/C=C/c1cccnc1)NCCCCC1CCN(C(=O)c2ccccc2)CC1 + OCc1c[nH]c2ccccc12 [Indole-3-carbinol] (first compound 0.01 µM, partner dose 0.8 µM)",73.7
